Experiment: LD10 dose of melphalan
Details: mice, intraperitoneal, previously established

Question: With `N[C@@H](Cc1ccc(N(CCCl)CCCl)cc1)C(=O)O` [Melphalan, 4-[bis(2-chloroethyl)amino]-L-phenylalanine] as the compound, how does the “LD10 dose (dose where 10% die)” value read?
Answer: 11.8 μmole/kg body weight
